# Among all 150,000 compounds or so, about 540 (0.36%) showed an effect of 50% or more. This is one part of the list.
# Tested on: Plasmodium falciparum
# Assay: Primary screen in NF54 nanoGlo assay, in single point, at 2uM, 72h; a lower Z score goes with more inhibition
# Assay type: functional, Erythrocyte
# Conditions: timepoint 72 hour
Compound,% Inhibition [%],Z score
c1ccc(-c2nc(CNC[C@H]3CN(C4CC4)CCO3)cs2)nc1,14,-2.17
O=S(=O)(CCCN1CCOCC1)NCc1cc(F)ccc1F,-5,0.91
NC(=O)c1cccnc1NCCN1CCCC[C@@H]1CO,-2,0.23
COc1ccc(CN[C@H]2[C@H](O)[C@H](O)C[C@@H]2c2ccc(N3CCOCC3)nc2)cn1,26,-2.97
c1cnc(-c2nc(Cn3cnnc3)cs2)nc1,-9,1.18
CN(C)C(=O)N1CCC(c2nc(C3CC3)nn2Cc2ccc(F)cc2)CC1,-7,1.35
Cc1cccc(C(=O)N2C[C@H](C(=O)O)[C@@H](c3ccccc3C)C2)n1,-3,0.6
CCCn1c(=O)c2sc(N3CCCCC3)nc2n(CC(=O)Nc2ccc(F)cc2Cl)c1=O,-26,2.27
COc1ccc(NC(=O)c2scc(-c3cccc(F)c3)c2S(=O)(=O)N(C)c2ccccc2)cc1,14,-1.55
COc1ncccc1CNC(=O)N1CCC1,-4,0.77
O=C(CC1CC2CCC1C2)Nc1ccccc1C1CCC(=O)N1 (configuration not stated),16,-1.83
Cn1c(=O)c2c(nc3n(-c4ccc(O)cc4)c(-c4ccccc4)cn23)n(C)c1=O,27,-3.08
C/C(=C\c1cc(Cl)ccc1O)CN1CCC2(CC1)CNC(=O)C2,18,-2.29
CC(Oc1cccc(C#N)c1)C(=O)N1CCOC2CCCCC21 (configuration not stated),-4,0.49
CC(C)Cc1ccc(C(=O)Nc2csc(C(N)=O)c2)s1,4,-0.48
CN(Cc1ccc2cn[nH]c2c1)C1CCOC(c2ccc(F)cc2)C1 (configuration not stated),-14,1.63
Cc1nc(N(C)C)nc(N2C[C@H](O)[C@@H](N(C)C)C2)n1,-2,0.33
CC(Oc1cccnc1)C(=O)N1CCCCC1c1ncon1 (configuration not stated),-1,0.14
CC(C)(C)OC(=O)NCc1cccc(NCc2ncc[nH]2)c1,-6,0.81
COC1(CNC(=O)Nc2ccccc2N(C)C)CCC1,-10,1.66
CC(C)(O)C1CCN(Cc2ccc3cc[nH]c3n2)CC1,3,-0.58
C[C@@H](C(=O)Nc1ncccc1O)n1nc2c(cc1=O)CCC2,10,-1.35

Compound,% Inhibition [%],Z score
COCCc1noc(-c2nc(-c3ccccc3)no2)n1,-3,0.57
CC(C)c1nnc(NCCc2nccs2)s1,4,-0.59
CN(C)c1ccc(C2=Nc3ccccc3C(c3ccccc3)(c3ccccc3)N2)cc1,12,-1.86
Cc1cc(S(N)(=O)=O)c(C)cc1N,5,-0.5
CN(C)[C@@H](C(=O)N1CCC(C(=O)N2CCCC2)CC1)c1ccc2c(c1)OCO2,-6,1.11
O=C(NCc1ccccn1)NCC1(c2ccccc2)CC1,-13,1.66
O=C(c1c[nH]c(=O)c(Br)c1)N1CCN(C2CCC2)CC1,-10,1.48
CC(C)[C@@H](CO)NC(=O)Nc1c(C(F)(F)F)nn(C)c1Cl,14,-1.79
Cc1ccc2nc(Cc3ccccc3)c(NC(=O)c3cccc(Cl)c3)n2c1,-11,1.5
Cc1nnc(CNS(=O)(=O)c2cccc(C(=O)Nc3cccnc3)c2)o1,-24,2.11
C[C@H]1COc2ccc(CN3CCCC3)cc2CN1C(=O)C1CCC1,-14,1.21
O=C1c2cccnc2CN1CCC(c1ccccc1)c1ccccc1,-14,1.31
COc1cncc(C(=O)N2CC[C@@H](C(F)(F)F)n3nc(C)cc32)n1,-6,1.25
COC(=O)c1cc(CNC(=O)c2cncs2)cc(NS(=O)(=O)c2ccc(F)cc2)c1,1,-0.08
CCCc1c(C(=O)Nc2ccc(F)c(N3CCCC3=O)c2)[nH]c(C)c1C(=O)OC,4,-0.66
Cc1ccn(CC(=O)NC2CN(Cc3ccccc3)CC2C)c(=O)c1 (configuration not stated),-18,2.42
Cc1[nH]c(CN(C)Cc2cscn2)cc1C#N,-8,1.36
CCn1nc(C)c(CNC[C@@H](O)c2ccc(C(F)(F)F)cc2)c1C,17,-3.25
CCCCN(CC)C(=O)CCCc1nc(C)cs1,0,-0.02
CC(C)(CNC(=O)c1ccccc1-n1ccnn1)N1CCOCC1,0,-0.03
COc1ncccc1CNC(=O)CC1CCN(C(C)=O)CC1,30,-3.35
O=C(c1ccccc1)C1C(c2ccccc2)N1C(=O)c1cccc(Cl)c1 (configuration not stated),-7,0.84

Compound,% Inhibition [%],Z score
O=C(Nc1ccccc1Oc1ccccc1Cl)[C@H]1CCCN(C(=O)c2cccs2)C1,-13,1.9
O=C1[C@H]2CN(Cc3ccccc3)C[C@H]2C(=O)N1CCc1ccccc1,0,0.03
COc1ccc2c(c1)OC[C@]1(CO)CN(Cc3noc(C4CCCC4)n3)C[C@H]21,-25,2.39
Cc1c(NC(=O)c2cnn(Cc3ccccc3)c2)c(N2CCCC2)nn1C,-9,1.67
CC[C@H](Nc1nc(-c2ccco2)nc2c1CCNCC2)c1ccnn1C,11,-1.26
Cc1ncc(CN(C)C(=O)Nc2ccc(-n3cncn3)nc2)s1,-13,2.5
O=C(NCCC1=CCCCC1)c1ccc(-n2nc3c(c2-c2cccc(C(F)(F)F)c2)CCC3)cc1,-5,0.73
CCn1ncnc1-c1c(-c2ccccc2)ncn1Cc1nnc(C)o1,-17,1.86
Cc1ccc(NC(=O)Cn2cc(S(=O)(=O)N3CCOCC3)ccc2=O)c(C)c1,-4,0.79
O=C(Cn1nc(-c2ccncc2)ccc1=O)NCc1ccccc1,-19,2.41
OC(CC1COCCN1)c1ccccc1 (configuration not stated),35,-0.57
Cc1csc(N(C(=O)c2cn3ccnc3s2)C2CC2)n1,-6,0.61
CCNCc1cc(Br)c(OCC)c(Br)c1,29,-3.84
COc1ccccc1-n1nc(C(C)C)nc1Cn1nnnc1N,-8,1.12
O=C(Nc1cn[nH]c1)[C@@H]1CN(Cc2nc3ccccc3c(=O)[nH]2)CCO1,-11,1.72
O=C(Nc1nc2ccccc2s1)c1ccc2c(c1)CCNCC2,-5,0.75
CCOc1ccc(CNS(=O)(=O)c2ccc(C(=O)N3CCCC3)s2)cc1OC,-9,1.76
COc1ccc(Cl)c(S(=O)(=O)NCCc2nc(-c3ccc(F)cc3)c[nH]2)c1,-3,0.44
CC1CCN(C(=O)C(=O)N2CCN(c3nc(C(C)C)c4c(c3C#N)CCCC4)CC2)CC1,-1,0.12
CCN(CC)C(=O)Cn1cc(C(=O)N2CCN(Cc3ccc(OC)cc3)C(=O)C2)nn1,-11,1.57
COCC[C@H]1CN(Cc2ccc3c(c2)OCCO3)CCO1,-8,1.17
CCOC(=O)c1cc(-c2ccccc2)n(NC(=O)COc2ccc(Cl)cc2)c1C,39,-5.05

Compound,% Inhibition [%],Z score
Cc1cc(CNC(=O)[C@@H]2CC3(CN(Cc4ccccc4)C3)CN2C)n(C)n1,-7,1.16
CC(=O)NCCOc1ccc(-c2nc(C)nn2-c2ccccn2)cc1,-18,1.99
CC(=O)c1ccc(-n2cc(-c3ccccc3)cc2-c2ccccc2)cc1,7,-0.93
CCC1(CC)CN(C(=O)CCS(C)(=O)=O)c2ccccc21,-5,0.8
Cc1ccc(Cl)cc1NS(=O)(=O)N(C)C,4,-0.83
O=C(c1cn[nH]c1)N1CC[C@@](O)(c2ccccc2)C1,-5,0.85
CC1CCCN(C(=O)C2CCN(C)CC2)C1CN (configuration not stated),-6,0.69
O[C@H](CN1CCOCC1)Cn1c2c(c3cccc(Cl)c31)CCCC2,-10,1.32
COCc1ccccc1S(=O)(=O)Nc1cc(N(C)C)ccc1C#N,-8,1.53
c1ccc(-c2cc(NC3C4CCCCC43)n3ncnc3n2)cc1 (configuration not stated),-13,1.45
CCC1CN(Cc2ncc(C)o2)C(CC)CN1Cc1ncc(C)o1 (configuration not stated),-7,0.61
Cc1ccn2cc(C(=O)N(CCN3CCOCC3)Cc3ccco3)nc2c1,-4,0.83
CC1(C)CCCC[C@@H]1NC(=O)Cc1ccnc(O)c1Br,0,-0.04
Cc1c([C@H](C)NC(=O)N2CCC(C(N)=O)CC2)sc2ccccc12,-3,0.42
Cc1nc(O)[nH]c(=O)c1S(=O)(=O)N1CCN(Cc2ccccc2)CC1,-1,0.13
CCCc1cc(NC(=O)N[C@@H]2c3ccccc3OC[C@@H]2CO)n(C)n1,-5,0.85
N#CC1CCC(NC2CCCC23CCOCC3)C1 (configuration not stated),6,-0.7
O=C1C[C@@H](C(=O)Nc2ccc(OC(F)(F)F)cc2)n2cnnc2N1,16,-2.01
COc1ccc(Cc2nnc(C(=O)NCc3ccc4c(c3)OCO4)o2)cc1OC,4,-0.59
CC1c2ccccc2OC1C(=O)N1CCN2C(=O)NC(=O)C2C1 (configuration not stated),-5,0.55
